From publication PMC4336329 (PLoS ONE, 2015)
The campaign covered roughly 310,000 compounds. About 14,000 (4.5%) showed an effect of 50% or more. The effect is printed as a negative number. Some of the results follow.

These compounds were tested against human ether-à-go-go-related gene (hERG) potassium channel (human, UniProt Q12809) (assay: primary screen, population patch clamp on CHO cells stably expressing hERG).
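Also: peak tail current of the secondary pulse compared with the same well before compound.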

Sequence of human ether-à-go-go-related gene (hERG) potassium channel (Q12809 whole entry, looked up): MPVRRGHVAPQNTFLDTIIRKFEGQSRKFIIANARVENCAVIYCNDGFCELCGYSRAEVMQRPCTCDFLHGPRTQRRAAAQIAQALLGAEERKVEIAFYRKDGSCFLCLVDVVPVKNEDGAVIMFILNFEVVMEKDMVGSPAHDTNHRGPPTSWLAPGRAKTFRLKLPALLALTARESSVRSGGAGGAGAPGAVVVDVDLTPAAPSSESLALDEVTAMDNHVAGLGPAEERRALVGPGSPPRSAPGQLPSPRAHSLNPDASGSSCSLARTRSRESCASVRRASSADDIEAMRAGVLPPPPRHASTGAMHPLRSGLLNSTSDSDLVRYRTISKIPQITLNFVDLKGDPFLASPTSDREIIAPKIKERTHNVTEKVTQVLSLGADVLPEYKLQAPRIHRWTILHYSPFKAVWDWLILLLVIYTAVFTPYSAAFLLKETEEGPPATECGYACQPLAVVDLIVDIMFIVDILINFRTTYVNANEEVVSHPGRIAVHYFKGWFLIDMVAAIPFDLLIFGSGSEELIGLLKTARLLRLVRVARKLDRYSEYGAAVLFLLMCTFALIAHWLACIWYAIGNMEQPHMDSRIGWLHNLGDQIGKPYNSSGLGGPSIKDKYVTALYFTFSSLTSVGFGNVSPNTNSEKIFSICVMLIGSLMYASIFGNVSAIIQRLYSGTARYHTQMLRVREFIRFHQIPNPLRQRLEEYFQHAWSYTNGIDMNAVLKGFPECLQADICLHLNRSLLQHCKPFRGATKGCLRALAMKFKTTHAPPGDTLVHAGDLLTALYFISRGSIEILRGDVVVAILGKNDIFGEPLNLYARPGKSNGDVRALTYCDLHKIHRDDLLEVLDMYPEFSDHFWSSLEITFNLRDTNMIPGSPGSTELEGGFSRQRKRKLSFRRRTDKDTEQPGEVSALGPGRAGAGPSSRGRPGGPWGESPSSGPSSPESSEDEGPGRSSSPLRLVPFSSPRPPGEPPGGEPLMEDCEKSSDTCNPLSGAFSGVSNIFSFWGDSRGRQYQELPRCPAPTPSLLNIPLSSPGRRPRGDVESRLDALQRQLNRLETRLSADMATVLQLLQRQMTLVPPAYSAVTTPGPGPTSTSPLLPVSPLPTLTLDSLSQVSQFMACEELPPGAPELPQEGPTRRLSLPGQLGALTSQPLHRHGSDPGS

Row | SMILES | hERG current change (%, negative = inhibition) at 10uM [%]
1 | Cl.NCCn1c(-c2ccccc2)cc(C(=O)O)c1-c1ccccc1F | 1.09
2 | CCOc1ccc2ncc(S(=O)(=O)c3ccc(C)cc3)c(N3CCC4(CC3)OCCO4)c2c1 | -19.4
3 | CCOc1ccc(C(=O)Nc2ccc(-c3nc4ccccc4[nH]3)cc2)cc1[N+](=O)[O-] | 5.46
4 | COC(=O)c1cc2occc2n1Cc1nc(-c2ccccc2C)oc1C | 11.6
5 | COC(=O)c1ccc(NC(=S)NC2c3ccccc3CC2O)cc1 (stereo not drawn) | 14.9
6 | O=C(NCN1CCc2ccccc2C1)c1cnccn1 | -5.36
7 | CC1(C)CC(=O)C(C=NCCN2CCN(CC(=O)Nc3ccc(F)cc3)CC2)=C(O)C1 | -4.49
8 | O=C1CC(c2ccc(F)cc2)CC(O)=C1C=NCCN1CCN(C(=O)Nc2ccccc2)CC1 (stereo not drawn) | -67.8
9 | O=C(Cn1nnc2ccccc21)N/N=C\c1cccs1 | 1.19
10 | c1ccc(CNc2nc3ccccc3n3cnnc23)nc1 | 0.696
11 | CCOC(=O)c1c[nH]c2c(C)ccc(Cl)c2c1=O | 20.9
12 | CC1CCN(S(=O)(=O)c2ccc(C(=O)Nc3nnc(-c4ccccn4)o3)cc2)CC1 | 14.8
13 | CN1C(=O)c2ccc(NC(=O)c3c(F)c(F)c(F)c(F)c3F)cc2C1=O | 18.3
14 | COCCN1C=C2C(=O)C(C)(OC(=O)C3CCCC3)C(=O)C=C2C=C1c1ccsc1 (stereo not drawn) | -6.22
15 | CCOC(=O)c1[nH]c(C)c(C)c1C | 16
16 | O=C1CN(C(=O)COc2ccc(Br)cc2F)c2ccccc2N1 | -15.1
17 | CCN(CC)c1ccc(N=Cc2c(O)n(Cc3ccccc3)c(=O)[nH]c2=O)cc1 [14738079] | 18.5
18 | Cc1ccccc1C(=O)NC1CCN(C(=O)NC2CCCCC2)CC1 | 7.15
19 | COc1ccc(CC(=O)NC(C)CCc2ccccc2)cc1OC (stereo not drawn) | 8.96

Row | SMILES | hERG current change (%, negative = inhibition) at 10uM [%]
20 | COc1ccc(CN2CCN(C(=O)c3ccco3)CC2)c(OC)c1OC | 9.29
21 | CCOC(=O)CN1C(=O)N[C@@H](c2cccs2)C(C(C)=O)=C1C | -1.5
22 | CCN1CCN(C(=O)c2ccc3c(c2)S(=O)(=O)c2ccccc2C3=O)CC1.Cl | -1.55
23 | COc1cccc(-c2nc(CS(=O)(=O)CC(=O)NCCCOC(C)C)c(C)o2)c1 | -1.26
24 | Cc1nnc(SCC(=O)Nc2ccccc2)n1CCc1ccccc1 | -33
25 | CSc1ccc(CNc2nc3ccccc3n3cnnc23)cc1 | 4.84
26 | Cc1occc1C(=O)NNC(=O)c1ccc(F)cc1 | -3.25
27 | COC(=O)c1ccc(-c2nc3cc(N)ccc3o2)cc1 | 12.7
28 | Cc1nc(NC(=O)c2cc3c(s2)CCCCC3)sc1C(=O)N(C)C | -21.8
29 | Cc1nn(Cc2ccccc2Cl)c(C)c1NC(=O)CSc1n[nH]c(C)c1[N+](=O)[O-] | 14.8
30 | Cc1ccc(S(=O)(=O)c2nc(S(C)(=O)=O)sc2N2CCCCCC2)cc1 | -14.8
31 | CC1(C)CC(NC(=O)C2CCCCC2C(=O)O)CC(C)(C)N1 (stereo not drawn) | 17.6
32 | CCn1c(C(=O)N2CCc3ccccc3C2)cc2sccc21 | -3.24
33 | O=S(=O)(c1cccc(-c2nnc(-c3cccnc3)o2)c1)N1CCCCC1 | -25
34 | COc1ccccc1NC(=O)CSc1nnc(Cc2cccs2)n1C | 5.99
35 | CCSc1nc(C2CC2)cc(-c2cccs2)c1C#N | -15.4
36 | CC(C)(Cc1ccc(O)cc1)NC(=O)CC(=O)N=Nc1c(O)[nH]c2cc(Br)ccc12 | 22.2
37 | CCOC(=O)c1cnc(SCC(=O)Nc2cc(OC)ccc2OC)nc1N | -4.84
38 | O=C(NCc1ccc2c(c1)OCO2)C1CCCN(S(=O)(=O)c2cccs2)C1 (stereo not drawn) | 1.56

Row | SMILES | hERG current change (%, negative = inhibition) at 10uM [%]
39 | CN(Cc1ccc(F)cc1)C(=O)c1cccc(NS(=O)(=O)c2ccccc2)c1 | -13.4
40 | CSc1nsc(/C=C/Nc2ccc(C)c(C)c2)c1C#N | 15.9
41 | COc1cccc(C(=O)NNC(=O)c2ccccc2Br)c1 | 5.35
42 | C=CCc1c(C)nc2c(OC)cccc2c1Cl | -5.59
43 | O=C(NCC1CCCO1)C1CCN(S(=O)(=O)c2cccc3nonc23)CC1 (stereo not drawn) | 2.29
44 | CS(=O)(=O)Nc1ccc(S(=O)(=O)N2CCCC2)cc1 | 8.49
45 | Cc1ccccc1CC(=O)NCCN1CCCCC1 | 11.8
46 | c1ccc(-n2c(-c3ccco3)nnc2-c2ccco2)cc1 | 1.77
47 | CN(C)c1ccc(C(=O)OCC(=O)NCCC2=CCCCC2)cc1 | -7.5
48 | CCCCN(CC)Cc1ccc(CNC(=S)Nc2ccccc2F)o1 | -16.3
49 | CCN(CC)S(=O)(=O)c1ccc(C(=O)NCc2ccc3c(c2)cc(C)n3C)cc1 | 11.1
50 | COc1cccc(-c2cc(N)nn2C(=O)Nc2ccc(Cl)cc2)c1 | 2.17
51 | O=c1c(-c2ccc(Cl)cc2)[n+]([O-])c2ccccc2n1O | 13.6
52 | Cc1ccc(Cl)cc1N1CCN(S(=O)(=O)c2c(C)[nH]c(=O)[nH]c2=O)CC1 | 8.11
53 | CC(=O)NC(=S)Nc1ccc(NC(=S)NC(=O)c2ccc([N+](=O)[O-])cc2)cc1 | 16.2
54 | O=C(Nc1ncccn1)c1cc([N+](=O)[O-])cc([N+](=O)[O-])c1 | -1.33
55 | CCOc1ccccc1NC(=S)NCCc1ccc(F)cc1 | -9.24
56 | COc1ccc(NS(=O)(=O)c2ccc3c(c2)oc(=O)n3C)c(OC)c1 | 9.04
57 | CCOc1c(Br)cc(C(=O)N2CCCN(C)CC2)cc1OC.Cl | 19
